From paper PMC12796321, “The genetic and biochemical basis of human leading strand synthesis”
Residue numbers refer to the chain shown, from its start. Results are given in words; binding and its absence hold for the method and conditions named. For some assays here: In cells and extracts the contact can be indirect. Some entries that bind do so weakly or less than the wild type. For some assays here: Sequences can lack the tags named with a protein. Each block holds one molecule with its values, some of them ahead of it.

What was measured:
WT FLAG-POLE1 (human) = WT FLAG-POLE1 (human) (UniProt Q07864); test: co-IP; FLAG immunoprecipitation (M2 anti-FLAG agarose, 2 h at 4 °C) from 2 mg whole-cell extract of transiently transfected 293T cells; lysis buffer 50 mM HEPES pH 7.5, 1% Triton X-100, 150 mM NaCl, 5 mM EGTA; endogenous partner detected by Western blot
FLAG-POLE4 D53K (human) = target: T1, FLAG-POLE4 D53K (human) (UniProt Q9NR33); test: as above
T1 sequence: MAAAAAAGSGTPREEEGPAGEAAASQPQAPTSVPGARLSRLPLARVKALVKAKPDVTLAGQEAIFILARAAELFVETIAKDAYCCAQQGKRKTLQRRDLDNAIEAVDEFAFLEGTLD

WT FLAG-POLE3 (human) = WT FLAG-POLE3 (human) (UniProt Q9NRF9); test: as above
WT FLAG-POLE4 (human) = target: T2, WT FLAG-POLE4 (human) (UniProt Q9NR33); test: as above
T2 sequence: T1 sequence with K53D

[1] = target: POLE1, catalytic subunit of human DNA Polymerase Epsilon, with N-terminal streptavidin tag (human) (UniProt Q07864); test: co-purification; subunits co-expressed in Sf9 cells from one biGBac vector; lysate over HiTrap TALON, then StrepTrap XT (streptavidin tag on POLE1), then Superdex200 size exclusion; Coomassie-stained gel of the purified complex
[2] = target: POLE1, catalytic subunit of human DNA Polymerase Epsilon, with N-terminal streptavidin tag (human) (UniProt Q07864); test: cross-linking; DSBU cross-linking mass spectrometry of the purified full Polε complex; trypsin digest, LC-MS/MS, MeroX, FDR 5%; both purified

Molecule: endogenous POLE1 (from UniProt Q07864 1-2286) (enzyme)
binding (FLAG-POLE4 D53K (human)): no binding
binding (WT FLAG-POLE3 (human)): binds
binding (WT FLAG-POLE4 (human)): binds

B1: POLE4 accessory subunit of human DNA Polymerase Epsilon (protein, UniProt Q9NR33 1-117)
chain: T1 sequence with K53D
binding [1]: binds
binding [2]: binds

Other lines, results leading:

binding (WT FLAG-POLE1 (human)): binds
Molecule: endogenous POLE3 (from UniProt Q9NRF9 1-147)

binding [1]: binds
binding [2]: binds
Molecule: POLE3 accessory subunit of human DNA Polymerase Epsilon (from UniProt Q9NRF9 1-147)
